Laboratory results as given in the supplement of paper PMC11417369.
± gives the standard deviation of the averaged measurements. Some of the results follow.

System: PfAP2-EXP AP2 domain (GST-tagged)
Assay: gcPBM binding intensity (ln(normalized median fluorescence intensity)); higher = stronger DNA binding
In short: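 Probes on an Agilent 4 × 180k array were primer-extended, double-stranded and 36 bp long, taken from intergenic genomic regions, with negative controls added. GST-tagged P. falciparum DNA-binding domains from E. coli, about 25 μg on average, were applied to the array for 1 h in 1× PBS containing 1% milk, 0.2 mg/ml BSA, 0.5% salmon testes DNA and 0.03% Triton X-100. Binding intensity, obtained after Alexa488 anti-GST antibody detection and a 488 nm scan, is the highest Masliner-normalised natural-log median intensity across replicate spots of either probe orientation.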

Row | Sequence | gcPBM binding intensity (ln)
1 | TTTTATTTATCATACACACACAGAAAAAAAAAAAAA [CACACA_site158] | 8.62 ± 0.51
2 | CCTTTCCTTTTATAAGTGCATATAACAAATGTATAC [GTGCAC_site9872] | 8.78 ± 0.23
3 | GAATGTTTATTATATGCATGTTATATATATGAATAT [TGCATGCA_site4] | 8.71 ± 0.38
4 | AATAATGAAAAATCAAATAACCTAAATTACAACTGT [XGTACX_negctrl_site65] | 8.43 ± 0.38
5 | TAAATATAATAAAAGTGTACTTACACTTACATATAA [XGTACX_site1206] | 8.21 ± 0.33
6 | TTTCACACTATTTCATGTACACATAAAATTATATAT [XGTACX_site8692] | 8.88 ± 0.23
7 | TTGTATATATTTCCTTGTACGTAATAATTCTTATTG [XGTACX_site3938] | 8.82 ± 0.3
8 | ATATAATAAGGTTAAGCACACATATTACATATATAA [CACACA_site9110] | 8.24 ± 0.33
9 | AACAGATAAAAGGGTACACACATATATACATGTACA [CACACA_site225] | 8.65 ± 0.3
10 | TTTTATTCCGTTTCAAAATAAGAAAAAAAAAAAAAT [CACACA_negctrl_site1199] | 8.26 ± 0.44
11 | TACTTCTCATTTGTTGTTGTATTTTAGGCATACCCT [XGTACX_negctrl_site385] | 9.05 ± 0.35
12 | AAAAATATAAATGACACACACTTAAAAACAAAGAAA [CACACA_site4540] | 8.87 ± 0.43
13 | ATTTAAAAAAAAAAAAATAAATAACTTGAAAAACAA [GTGCAC_negctrl_site318] | 8.31 ± 0.45
14 | CTTATATATACGTGCACACATATATATAAGATATAT [CACACA_site1752] | 8.96 ± 0.26
15 | AAGGATAATAGGTACACATGCAATATTCATATATAC [TGCATGCA_site523] | 9.1 ± 0.24
16 | ATGGCATAAATATATGCACACACAAAAAAAAAAAAA [CACACA_site7902] | 8.43 ± 0.48
17 | ATATATATATGTATGTATATATATATATATATGTTT [CACACA_negctrl_site248] | 9.505 ± 0.064
18 | TTTCTTTTTTTTTGAAGTACATAAAAATATAAAAAA [XGTACX_site311] | 8.28 ± 0.31
19 | TAAATTTTTTCTTTTTGTACATATTTTAAAAATGTT [XGTACX_site7526] | 8.64 ± 0.54
20 | AATATTATAAAATATTGTACTTAAAAAATTATTAAA [XGTACX_site2469] | 8.06 ± 0.3
21 | AAAAAGAAAAAGAGCACACAAAAATATTTAACCTTT [CACACA_site2747] | 8.48 ± 0.63
22 | GATAAATATTTAATATGTACATATATTATATATATA [XGTACX_site117] | 8.87 ± 0.014

Row | Sequence | gcPBM binding intensity (ln)
23 | GTTATATATGATGGAAGCACTTGGAAGAGGGAAATA [CACACA_negctrl_site1831] | 8.84 ± 0.45
24 | TATATACACACCGTGTGTACATATACATTAACTGAA [XGTACX_site7120] | 8.61 ± 0.35
25 | AAAAATAAAAAAATAAAAAATAAAAAAATAAAAAAT [CACACA_negctrl_site1425] | 8.32 ± 0.56
26 | ATTAAAGTTATAAATTCACACATGTAAATGTATTTA [CACACA_site5279] | 8.19 ± 0.37
27 | ATATATTATATATGCGCACACACGAATTTTTTTTTT [CACACA_site2393] | 8.97 ± 0.36
28 | TATATATATATAATATGTACATATATACATGCCTTG [XGTACX_site2791] | 9.78 ± 0.39
29 | TACACTAATGACAGTTGTACTTTTATTCGATAGAAT [XGTACX_site738] | 8.4 ± 0.33
30 | ACTTTTTTTTTGTGTGTGCACTCGATTATATACATA [GTGCAC_site9846] | 9.38 ± 0.26
31 | TCGAAAATGACGAATGGTACAGTATGTATAAAAATA [XGTACX_site1258] | 8.66 ± 0.4
32 | TCAAAATTGCTTTGTTGTACTAATAAAATTTATTAC [XGTACX_site1121] | 8.57 ± 0.37
33 | TATATATACATACGTACACACAAATATTAAAATATA [CACACA_site1951] | 8.6 ± 0.28
34 | TATCTGTAAACATATTCACACACATAAATTCGCATA [CACACA_site8557] | 8.63 ± 0.52
35 | AAAAAAAAATGTCATGGTACACAATTTTTTCTTTTT [XGTACX_site4505] | 8.14 ± 0.4
36 | TAAAGTAAAACAAGGTAAGGTTTTTCTTTTTCTTTT [CACACA_negctrl_site1271] | 8 ± 0.49
37 | TAGATTATTTTATTTAGTACATAAAAAAGTAAGACC [XGTACX_site7889] | 8.71 ± 0.2
38 | AATAAATTATGAACGGTGCAGGAAAAATTGTAACAT | 9.29 ± 0.3
39 | TGAAGTGCAAAATACTGTACGTAATGTGCTTGTTAC [XGTACX_site4512] | 8.75 ± 0.23
40 | CAAAAAAACAAACACACACACACACCGATATATATA [CACACA_site9218] | 8.74 ± 0.48
41 | AAACATAAGGGACACACACACATATATATATATATA [CACACA_site5920] | 10.3 ± 0.16
42 | CAATCTTTTACGAATACACACACATAAAGAAAAAAA [CACACA_site8367] | 8.71 ± 0.49
43 | AATTTTTTATATGTCACACATTTGTTATTATTATTA [CACACA_site4197] | 8.65 ± 0.4
44 | TTAAATAAATAAAAATGTACATGCATATATAAATAT [XGTACX_site8908] | 8.93 ± 0.33

Row | Sequence | gcPBM binding intensity (ln)
45 | ACATATAGAAGTATCTATAAACAGTGATAGCATTTT [CACACA_negctrl_site1122] | 8.41 ± 0.29
46 | AAAAAGAATAAATAAATATAAATAAATAAATATATA [GTGCAC_negctrl_site336] | 8.27 ± 0.26
47 | AAAACACAAAAAAAATGTACACATATATATATATAT [XGTACX_site8509] | 10 ± 0.38
48 | TAACTATATTTTTACTGTACAAAAAAATTAAATAAT [XGTACX_site1765] | 8.43 ± 0.38
49 | ATATTAATTCTACATTGTACACATGAAAAAATATAA [XGTACX_site8759] | 8.51 ± 0.33
50 | AAATTAAATAAATTTACACACTAAAAATTACAGATA [CACACA_site4722] | 8.38 ± 0.47
51 | CATTATGTCGTAAATACACACATACAGATACATACA [CACACA_site4880] | 8.56 ± 0.34
52 | AAAAAACACCCACATACACACAAAAATGTTATAAAT [CACACA_site81] | 8.77 ± 0.8
53 | TTTTTATTTGGTTGTGTACACATATATATATATATA [CACACA_site5844] | 10.2 ± 0.3
54 | GTTATATATAATAATTGTACAAAATTAAATATAACT [XGTACX_site4189] | 8.48 ± 0.44
55 | CTAAGAAAAAATAAAGCACACAAATATTTTAAAAAC [CACACA_site9094] | 8.8 ± 0.4
56 | AAAATATGTAGACACATACACACATATATATATATA [CACACA_site1221] | 10.1 ± 0.26
57 | TTTTCTTTTTCCAAAAGTACGTAATTTAAACATTTT [XGTACX_site2066] | 8.48 ± 0.37
58 | TATATGTATGTTTGTTTGTTTGTATTTTTTAAGGTA [XGTACX_negctrl_site619] | 8.72 ± 0.19
59 | TTTTTTTTTTCAAATGCATGCAAAAAAAAAAAAATA [TGCATGCA_site945] | 9.26 ± 0.28
60 | ATAATTATGAAGCATACATGCATGTCCTGGCTTAAA [TGCATGCA_site491] | 9.15 ± 0.3
61 | AAATTAGAAATACCTACACACTTATCAAAATAAATT [CACACA_site7132] | 8.23 ± 0.49
62 | TTATAATATGGATACACACACATATATAAATATATA [CACACA_site5314] | 8.36 ± 0.4
63 | AAAAAATAAATAAATACACACAAATCTATATTTATA [CACACA_site7243] | 8.12 ± 0.57
64 | ATCTAAATTTTTCCATGTACATATACTTTTATGCAT [XGTACX_site2683] | 9.29 ± 0.53
65 | GCAAGGAAATAATTGATAATATATATATATATATAT [GTGCAC_negctrl_site400] | 10.1 ± 0.28
66 | GAGTAAATAAATAAATGTACATATATATATATTATC [XGTACX_site8466] | 8.56 ± 0.41

Row | Sequence | gcPBM binding intensity (ln)
67 | TATAATAAATATTAACGTACTCATATATATATATAT [XGTACX_site3871] | 10.1 ± 0.52
68 | AATATATATATATATATATATTTTTGTTAGAATATG [XGTACX_negctrl_site58] | 8.45 ± 0.12
69 | ATACATAAATATTGATGTACTCATTTAATATATTAT [XGTACX_site3992] | 8.38 ± 0.26
70 | CTAAAATACGGACACACACACACATATATATATATA [CACACA_site6138] | 10.3 ± 0.15
71 | AAAAAAAAAAAAAACACACACACAAAAAAAAATATA [CACACA_site1104] | 8.48 ± 0.45
72 | ATTGTATATAAATGAGTGCATACTATGTTGTTCTTA [GTGCAC_site9678] | 8.66 ± 0.14
73 | ATTATCTCCGCCATGTGGACACATATAAGACATTTT [XGTACX_site2889] | 8.91 ± 0.38
74 | AGGCTACGAATAGAATGTACCCGAAATAAGGAATAT [XGTACX_site6012] | 8.74 ± 0.47
75 | ATATAAGCGTATACATGTACATATATATCTTTGTAA [XGTACX_site2742] | 8.72 ± 0.37
76 | TATGTAAATCTCTTAAGAATTCGCTATATCTCTTTT [CACACA_negctrl_site1180] | 8.41 ± 0.49
77 | ATCTATGAAAAAGGTACATGCAATAAAGAAACATAT [TGCATGCA_site805] | 9.54 ± 0.45
78 | TTATAATCAATGAATACACACATATATTTCATTAAT [CACACA_site5909] | 8.28 ± 0.47
79 | TAATAATAGAGACACACACACATAGACATATAAATA [CACACA_site6729] | 8.83 ± 0.51
80 | TTATACTATTTTTATACATGCATTTCTATATATTTT [TGCATGCA_site316] | 9.3 ± 0.28
81 | TTCAAAATAAAAAATTCACACACATATATATATATA [CACACA_site8653] | 10 ± 0.45
82 | ATTTATTAAATTTATAGTACTCAAAGATTTTTATTT [XGTACX_site6661] | 8.43 ± 0.38
83 | AAATAAAACAATTAACGTACAAGCATATATATATAT [XGTACX_site8508] | 10.1 ± 0.14
84 | AAATAAAAAAAAATAGCACACATAAATATATTATAT [CACACA_site8155] | 8.66 ± 0.33
85 | TATGTATAATTATTTTGTACTTATTAAATTTTTTTT [XGTACX_site5413] | 8.23 ± 0.42
86 | TATATATATATTATATGTACACAAGGAAATATGCAT [XGTACX_site5637] | 9.34 ± 0.028
87 | AAAAAAAAAAAAGTTACACACAAATAAAATATTTGG [CACACA_site694] | 8.24 ± 0.45
88 | AAGAAAAATTTAAACTGTACTTGTTTTCCAATGAAC [XGTACX_site4443] | 8.66 ± 0.16
